Results on 25 molecules are retold here after article PMC4336329 (PLoS ONE, 2015).

Out of some 310,000 compounds screened, about 14,000 (4.5%) showed an effect of 50% or more. Effects have a minus sign here. Some of the results follow.
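Further: peak tail current of the secondary pulse compared with the same well before compound.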

The target of this assay is human ether-à-go-go-related gene (hERG) potassium channel (human, UniProt Q12809). As to the kind of experiment: primary screen, population patch clamp on CHO cells stably expressing hERG.
Chain of human ether-à-go-go-related gene (hERG) potassium channel (Q12809 whole entry, looked up): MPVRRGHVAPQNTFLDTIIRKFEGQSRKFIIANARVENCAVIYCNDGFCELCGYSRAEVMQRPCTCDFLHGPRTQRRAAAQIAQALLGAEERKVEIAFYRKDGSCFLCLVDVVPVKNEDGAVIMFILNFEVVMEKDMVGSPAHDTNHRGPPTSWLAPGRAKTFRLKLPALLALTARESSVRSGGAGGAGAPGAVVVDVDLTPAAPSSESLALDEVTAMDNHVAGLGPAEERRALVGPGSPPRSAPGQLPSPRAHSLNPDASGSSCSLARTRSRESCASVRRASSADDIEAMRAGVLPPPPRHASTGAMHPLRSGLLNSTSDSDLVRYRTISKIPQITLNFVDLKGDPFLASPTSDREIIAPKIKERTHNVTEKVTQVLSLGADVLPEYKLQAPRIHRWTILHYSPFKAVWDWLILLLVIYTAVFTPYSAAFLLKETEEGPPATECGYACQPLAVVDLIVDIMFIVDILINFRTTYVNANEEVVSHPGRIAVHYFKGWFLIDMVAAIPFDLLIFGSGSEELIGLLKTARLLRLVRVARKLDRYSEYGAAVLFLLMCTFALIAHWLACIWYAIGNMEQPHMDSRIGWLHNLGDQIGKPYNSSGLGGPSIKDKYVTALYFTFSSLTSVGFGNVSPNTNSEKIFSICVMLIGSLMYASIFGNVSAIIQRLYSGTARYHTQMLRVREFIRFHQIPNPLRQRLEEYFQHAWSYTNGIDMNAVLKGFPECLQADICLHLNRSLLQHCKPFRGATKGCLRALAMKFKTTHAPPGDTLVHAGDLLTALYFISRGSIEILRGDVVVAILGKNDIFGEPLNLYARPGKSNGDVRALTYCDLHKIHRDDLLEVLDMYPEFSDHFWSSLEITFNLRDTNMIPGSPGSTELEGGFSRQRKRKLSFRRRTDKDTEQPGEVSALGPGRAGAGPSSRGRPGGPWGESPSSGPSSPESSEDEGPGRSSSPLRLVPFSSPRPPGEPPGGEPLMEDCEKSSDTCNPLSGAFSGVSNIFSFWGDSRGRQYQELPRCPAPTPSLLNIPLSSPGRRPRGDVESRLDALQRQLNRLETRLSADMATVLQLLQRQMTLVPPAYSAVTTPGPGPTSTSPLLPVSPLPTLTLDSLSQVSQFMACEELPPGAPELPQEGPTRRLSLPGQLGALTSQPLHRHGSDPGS
As to `CCN(Cc1ccccc1)c1c(C(=O)O)cnc2c1cnn2C`, the “hERG current change (%, negative = inhibition) at 10uM” value came to 17.1%.

On to `CCOC(=O)c1cc(=O)c2c([N+](=O)[O-])ccc(OC)c2o1`, for which the “hERG current change (%, negative = inhibition) at 10uM” value came out at 5.54%.

For the molecule `Cc1ccc(C(=O)N2CCN(S(=O)(=O)N3CCOCC3)CC2)cc1`, the “hERG current change (%, negative = inhibition) at 10uM” value came to 1.55%.

For the molecule `Oc1ccccc1N1CCN(c2ccc3ccccc3n2)CC1`, the “hERG current change (%, negative = inhibition) at 10uM” value was 12.8%.

Take `COc1ccc(C(=O)N(c2ccc(C)cc2)C2C=CS(=O)(=O)C2)cc1OC` (stereo not shown): the “hERG current change (%, negative = inhibition) at 10uM” value is given as 9.79%.

Take `Cn1c(=O)c2c(nc(CN3CCN(CCO)CC3)n2Cc2cccc3ccccc23)n(C)c1=O`: the “hERG current change (%, negative = inhibition) at 10uM” value is -5.53%.

With `Cc1ccc(C(=O)C2COC(=O)C2)cc1` (stereo not shown), the “hERG current change (%, negative = inhibition) at 10uM” value is recorded as 9.04%.

As for `COc1ccc(CCNC(=O)C2CCN(c3nccc(C)n3)CC2)cc1`, the “hERG current change (%, negative = inhibition) at 10uM” value is recorded as 18.5%.

On to `CCOC(=O)Cc1csc(NC(=O)c2sc3nc4ccc(C)cc4cc3c2N)n1`, for which the “hERG current change (%, negative = inhibition) at 10uM” value is recorded as -0.972%.

Take `COc1ccc(CC(=O)OC(C)C(=O)Nc2ccc(Cl)cn2)cc1` (stereo not shown): the “hERG current change (%, negative = inhibition) at 10uM” value is -12.4%.

Take `CCOc1ccc(C(C(=O)NCCC(C)C)N(CCO)C(=O)c2snc(C(N)=O)c2N)cc1` (stereo not shown): the “hERG current change (%, negative = inhibition) at 10uM” value is recorded as -27%.

As for `COc1ccc(C(O)c2cc(OC)ccc2OP(=O)(N(C)C)N(C)C)cc1` (stereo not shown), the “hERG current change (%, negative = inhibition) at 10uM” value is -2.93%.

For `COc1ccc(N2CCN(C(=O)CSc3nnc(-c4cccnc4)n3-c3ccccc3)CC2)cc1`, the “hERG current change (%, negative = inhibition) at 10uM” value is on record as -27.1%.

In the case of `CCCCCCc1cc2cc(S(=O)(=O)c3ccc(F)c(Cl)c3)c(=O)oc2cc1O`, the “hERG current change (%, negative = inhibition) at 10uM” value turned out to be 0.372%.

For `CSc1nc(Oc2ccc3ccccc3c2)c2sccc2n1`, the “hERG current change (%, negative = inhibition) at 10uM” value is on record as 1.88%.

On to `CCN(CC)S(=O)(=O)c1ccc(C(=O)OCC(=O)N2CCN(C(=O)c3ccco3)CC2)cc1`, for which the “hERG current change (%, negative = inhibition) at 10uM” value was -37.2%.

Turning to `CCC(c1nnc(SCC(=O)NC23CC4CC(CC(C4)C2)C3)o1)N(C)C` (stereo not shown), the “hERG current change (%, negative = inhibition) at 10uM” value was determined as 6.71%.

In the case of `CC1CN(C(=O)c2ccccc2Sc2ccccc2C#N)CC(C)O1` (stereo not shown), the “hERG current change (%, negative = inhibition) at 10uM” value amounted to 4.5%.

`Cc1occc(=O)c1O`: the “hERG current change (%, negative = inhibition) at 10uM” value is 8.04%.

As for `O=C(O)c1cccc(N2CCCC2)c1`, the “hERG current change (%, negative = inhibition) at 10uM” value was -4.74%.

In the case of `O=C(/C=C/c1ccco1)NC(=S)Nc1cccc(-c2nc3ccccc3o2)c1`, the “hERG current change (%, negative = inhibition) at 10uM” value amounted to 13.9%.

In the case of `COc1ccccc1C(=O)NC(CCSC)C(=O)NNC(=O)c1csc(N2CCOCC2)n1` (stereo not shown), the “hERG current change (%, negative = inhibition) at 10uM” value is listed as 10.2%.

Turning to `CCOc1ccc(C(=O)Nc2cccc(C)n2)cc1`, the “hERG current change (%, negative = inhibition) at 10uM” value came to 0.201%.

On to `Cc1ccn2c(NC3CCCC3)c(-c3ccccn3)nc2c1`, for which the “hERG current change (%, negative = inhibition) at 10uM” value was -17.2%.

`NNC(=O)c1c[nH]c2ccc(OCc3ccccc3)cc12`: the “hERG current change (%, negative = inhibition) at 10uM” value worked out at 4.59%.
